The whole screen tested about 310,000 compounds, of which about 2,200 (0.71%) showed an effect of 50% or more. The effect is printed as a negative number. This is one part of the list.
Target: human ether-à-go-go-related gene (hERG) potassium channel (human, UniProt Q12809)
Experiment: primary screen, population patch clamp on CHO cells stably expressing hERG

Sequence of human ether-à-go-go-related gene (hERG) potassium channel (Q12809 whole entry, looked up): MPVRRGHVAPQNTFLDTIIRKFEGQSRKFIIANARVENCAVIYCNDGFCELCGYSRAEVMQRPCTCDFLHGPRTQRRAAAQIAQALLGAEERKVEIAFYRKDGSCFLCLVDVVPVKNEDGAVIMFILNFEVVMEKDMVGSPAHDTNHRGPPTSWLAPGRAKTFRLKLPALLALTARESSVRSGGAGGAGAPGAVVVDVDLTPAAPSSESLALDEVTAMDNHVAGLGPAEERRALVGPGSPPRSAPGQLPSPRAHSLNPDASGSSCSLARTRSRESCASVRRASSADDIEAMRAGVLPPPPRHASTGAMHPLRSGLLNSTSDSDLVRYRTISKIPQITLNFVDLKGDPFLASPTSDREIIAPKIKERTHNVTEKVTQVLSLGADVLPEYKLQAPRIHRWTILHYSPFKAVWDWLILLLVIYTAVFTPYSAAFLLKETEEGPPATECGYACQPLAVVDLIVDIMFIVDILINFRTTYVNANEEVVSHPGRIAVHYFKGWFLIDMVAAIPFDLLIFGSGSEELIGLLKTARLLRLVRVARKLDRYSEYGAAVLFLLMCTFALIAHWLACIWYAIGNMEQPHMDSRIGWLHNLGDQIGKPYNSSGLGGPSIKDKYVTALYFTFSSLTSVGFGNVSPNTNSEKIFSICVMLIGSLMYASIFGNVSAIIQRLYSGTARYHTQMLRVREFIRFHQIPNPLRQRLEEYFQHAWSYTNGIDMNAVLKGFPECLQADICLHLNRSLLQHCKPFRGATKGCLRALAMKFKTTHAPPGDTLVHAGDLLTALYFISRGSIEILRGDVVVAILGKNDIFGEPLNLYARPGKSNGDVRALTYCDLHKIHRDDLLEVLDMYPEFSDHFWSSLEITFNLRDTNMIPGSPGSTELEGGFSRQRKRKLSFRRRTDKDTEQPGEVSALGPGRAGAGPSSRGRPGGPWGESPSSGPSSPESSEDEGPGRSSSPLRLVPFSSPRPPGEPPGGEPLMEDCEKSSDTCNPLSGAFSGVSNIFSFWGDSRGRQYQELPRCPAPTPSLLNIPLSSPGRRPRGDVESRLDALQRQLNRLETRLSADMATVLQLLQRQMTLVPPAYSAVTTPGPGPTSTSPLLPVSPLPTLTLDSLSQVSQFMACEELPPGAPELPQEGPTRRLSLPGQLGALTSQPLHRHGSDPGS

Row | SMILES | hERG current change (%, negative = inhibition) at 1uM
1 | O=C(N/N=C1\CCSC1)c1cc(Cl)ccc1O | 7.09%
2 | CCOc1ccc(CN2CCN(C(=O)c3cccc(F)c3)CC2)cc1.O=C(O)C(=O)O | -30.6%
3 | CC(C)[C@H](NC(=O)NCc1ccc(F)cc1)C(=O)O | 13.6%
4 | Cn1nc(C(=O)Nc2ccc(Br)cc2)cc1C(=O)Nc1ccc(Br)cc1 | 4.86%
5 | Br.FC(F)Oc1ccc(-c2csc(NNC3=NCCCCC3)n2)cc1 | -10.3%
6 | COc1ccc(CC(=O)Nc2ccc(S(=O)(=O)Nc3onc(C)c3C)cc2)cc1OC | 15.3%
7 | Cc1ccc(SCC(=O)OCC(=O)NCCc2ccccc2)cc1 | 13.3%
8 | CCCc1nnc(SCC(=O)Nc2ccccc2Cl)n1CC1CCCO1 (stereo not drawn) | 9.7%
9 | CC1C(=O)N(Cc2ccccc2)c2ccccc2N1C(=O)c1ccccc1 (stereo not drawn) | 9.51%
10 | Cc1ccc(NC(=O)COc2ccccc2)c(NC(=O)c2ccccc2C)c1 | 5.7%
11 | CCOc1ccc(-c2csc3nc[nH]c(=O)c23)cc1 | 13.9%
12 | Cc1nc(-c2ccc(F)cc2)c(CC(=O)N(C)CC(=O)Nc2ccc(Br)cc2C)s1 | 18.1%
13 | Cn1c(SCc2cccc(Br)c2)nc2ccccc2c1=O | 15.5%
14 | Cl.c1cc2c(cc1C1CCCCC1)c1c3n2CCCNC3CCC1 (stereo not drawn) | -5.39%
15 | O=c1oc2ccccc2c(O)c1/C=N/c1ccccn1 | 12.8%
16 | COc1ccc(CNC(=O)CSCc2c(F)cccc2Cl)cc1 | -1.01%
17 | CCN(CC)c1ccc(NC(=O)COC(=O)c2ccc3ccccc3n2)cc1 | -1.19%
18 | C=CC(COCc1ccccc1)N(C(=O)OC(C)(C)C)S(=O)(=O)c1ccccc1Br (stereo not drawn) | 1.36%
19 | C=Cc1cccc(NC(=O)COc2ccccc2)c1 | 12.7%
20 | C=CCOC(=O)C1=C[C@@H](c2ccc(Br)cc2)[C@H](CCCO)[C@@H](OCC)O1 | 15.6%
21 | O=C(OC1CCCCC1=O)c1cccc(S(=O)(=O)N2CCCCC2)c1 (stereo not drawn) | 10.5%
22 | CC(C(=O)Nc1ccc2c(c1)OCCO2)N(C)Cc1c(F)cccc1Cl (stereo not drawn) | 11.2%

Row | SMILES | hERG current change (%, negative = inhibition) at 1uM
23 | Cc1ccc(CNC(=O)Cc2ccc(-n3c(=O)[nH]c4ccsc4c3=O)cc2)cc1 | 6.06%
24 | CCOC(=O)N1CCC(NC(=O)CCC(=O)N2CCOc3ccc(C)cc32)CC1 | 7.27%
25 | COc1cccc(CNC(=O)CCS(=O)(=O)c2cccs2)c1 | -12%
26 | COC(=O)C1CCN(C(=O)c2cc3c(=O)n4cccc(C)c4nc3n2Cc2ccccc2)CC1 | 13.5%
27 | CCn1c(NC(=O)c2ccc(COc3ccc(C)cc3[N+](=O)[O-])o2)nc2ccccc21 | -1.09%
28 | O=C(C[n+]1ccccc1)N/N=C/c1ccccc1Cl.[Cl-] | 13.2%
29 | COc1cc(-c2nnc(SCC(=O)c3cc(C)n(CC4CCCO4)c3C)o2)cc(OC)c1OC (stereo not drawn) | 2.73%
30 | c1ccc(-c2cc(-c3nnc4sc(-c5ccccn5)nn34)[nH]n2)cc1 | 7.08%
31 | CCc1nnc(NC(=O)CCC(=O)N2CCCC(O)C2)s1 (stereo not drawn) | 13.3%
32 | O=c1c2ccccc2nnn1CSc1nnc(-c2cccs2)n1Cc1ccccc1 | -14.3%
33 | CCOC(=O)c1[nH]c2cc3c(cc2c1NC(=O)CN1CCc2ccccc2C1)OCO3 | 5.37%
34 | CC(OC(=O)c1cc(O)c2ccccc2c1O)C(=O)Nc1ccc(C(N)=O)cc1 (stereo not drawn) | 11.5%
35 | CC(C)(C)C(=O)Nc1ccc2c(c1)-c1cc(NC(=O)C(C)(C)C)ccc1C2 | 13.7%
36 | COc1ccc(C(N)=S)c(OC)c1 | 1.77%
37 | COc1ccc(/C=C/C(=O)NC(=S)N2CCCCC2)cc1OC | 14.5%
38 | Cc1ccccc1NC(=O)Cc1nnc(SCC(=O)N2CCOCC2)n1C | -1.79%
39 | CC(=O)N1CCN(C(=O)CCN(c2ccccc2)S(=O)(=O)c2ccc(C)cc2)CC1 | 1.04%
40 | Cc1c(C(=O)NC2CCN(Cc3ccccc3)C2)oc2c(Cl)cccc12 (stereo not drawn) | 2.96%
41 | COc1cccc2cc(-c3n[nH]c(=S)n3C)oc12 | 11.2%
42 | COc1cccc(N2C(=O)CC(N3CCc4ccccc43)C2=O)c1 (stereo not drawn) | 16.8%
43 | CN1C(=O)NC(NC(=O)c2ccncc2)(C(F)(F)F)C1=O (stereo not drawn) | 14%
44 | CCOc1ccccc1C(=O)Nc1ccc(C(=O)c2ccccc2)cc1 | 12.4%

Row | SMILES | hERG current change (%, negative = inhibition) at 1uM
45 | CCN(CC(=O)Nc1c(F)cccc1F)C(=O)CCOc1ccccc1 | 7.03%
46 | O=C(O)c1ccccc1SCc1cn2cc(Cl)ccc2n1 | 8.76%
47 | CC(C)(C)C(=O)NC1CC2CCCC(C1)N2C(=O)Nc1ccccc1Cl (stereo not drawn) | 19.1%
48 | CCOC(=O)c1cc(-c2ccc(Cl)cc2)nc2c1c(=O)[nH]c(=O)n2CCOC | 10.4%
49 | CC(=O)c1ccc(N2CCN(C(=O)c3ccc4c(=O)n(-c5ccccc5)c(=O)[nH]c4c3)CC2)cc1 | 8.24%
50 | CC(C)C(=O)Nc1cc(-c2nc3ncccc3o2)ccc1Cl | 13.5%
51 | Cc1cc(C)c(-n2nnnc2SCC(=O)c2cccs2)c(C)c1 | 13.4%
52 | Cc1ccc(NC(=O)Cn2c(O)c(N=NC(=O)c3cc4ccccc4cc3O)c3ccccc32)cc1 | 11.4%
53 | COc1ccc(Cn2nnnc2C(c2ccncc2)N2CCOCC2)cc1 (stereo not drawn) | 0.213%
54 | O=C(CN1CCCC1)Nc1c(C(=O)C2CC2)oc2ccccc12 | 8.68%
55 | CCOC(=O)N1CCN(C(=O)COc2cccc3c2CCN(Cc2ccccc2C)C3=O)CC1 | 0.619%
56 | C/C(=N\NC(=S)NCCc1ccccc1)c1ccc(Cl)cc1Cl | 8.66%
57 | Cc1ccc(C)n1-c1ccc2c(c1)COC2=O | 0.209%
58 | CCN1CCN(C(=O)c2ccc(S(=O)(=O)Nc3ccccc3)cc2)CC1.Cl | 9.78%
59 | O=C(c1ccc(Cl)c(Cl)c1)N1CCC(O)(CN2CCOCC2)CC1 | -6.73%
60 | COc1cccc(CN2CCNC(=O)C2CC(=O)NCc2cn3ccc(C)cc3n2)c1OC (stereo not drawn) | 7.75%
61 | CC(C)CC(NC(=O)C1CCC(C)CC1)C(=O)Nc1ccc2c(c1)OCCO2 (stereo not drawn) | 8.16%
62 | O=C(NCCC(=O)N1CCN(c2ccccc2O)CC1)c1ccc(Br)cc1 | 11.9%
63 | O=C(NCC1COc2ccccc2O1)c1ccc(NC(=O)C(c2ccccc2)c2ccccc2)cc1 (stereo not drawn) | 12.8%
64 | COC(=O)c1cn(NC(=O)C2COc3ccccc3O2)c(=O)c2ccccc12 (stereo not drawn) | 8.47%
65 | Cc1ccc(-c2nnn(CC(=O)N3CCCCC3)n2)o1 | -5.76%
66 | COc1ccc(-n2nnnc2CNC(=O)C2CC(=O)N(c3ccc(Cl)cc3)C2)cc1 (stereo not drawn) | -1.33%

Row | SMILES | hERG current change (%, negative = inhibition) at 1uM
67 | COc1cccc(C(C(=O)NC2CCCCC2)N(C(=O)CNC(=O)c2ccco2)c2cccnc2)c1 (stereo not drawn) | 8.42%
68 | CCN(CC)CCN1C(=O)C(=O)/C(=C(/O)c2c(C)[nH]c(C(=O)OC)c2C)C1c1ccc(OC)cc1 (stereo not drawn) | 0.699%
69 | Brc1ccc(-n2cnc(-c3ccccc3)c2)cc1 | 13.7%
70 | CCCCN(C)C(=O)Cn1cnc2sc(C)cc2c1=O | 14.6%
71 | O=C(Nc1ccccc1)Nc1ccc(F)c([N+](=O)[O-])c1 | 7.72%
72 | CCOc1ccc(NC(=O)CN(C)C(=O)c2ccc(-c3ccc(C(C)=O)cc3)o2)cc1OCC | 10.5%
73 | O=S(=O)(Nc1nc2ccccc2s1)c1cc(F)ccc1F | 6.58%
74 | CC(C)c1ccccc1OCCCN1CCCC1.O=C(O)C(=O)O | 2.42%
75 | COc1cc(C2Nc3ccccc3C(=O)N2c2ccccc2)ccc1O (stereo not drawn) | 6.77%
76 | CCOC(=O)C(C)n1nc(-c2ccccc2)c2ccccc2c1=O (stereo not drawn) | 10.2%
77 | O=C(/C=C/c1ccco1)OCc1nnc(-c2ccccc2)o1 | 11.9%
78 | O=C(CSc1nc2ccccc2c(=O)n1C1CC1)NCc1ccccc1 | -3.37%
79 | O=C(O)c1cccc(NS(=O)(=O)c2ccc3nnn(O)c3c2)c1 | 8.32%
80 | NC1=NS(=O)(=O)NC1c1ccc(Br)cc1 (stereo not drawn) | 14.1%
81 | N#C/C(=C\c1ccc(-c2ccccc2)o1)C(=O)Nn1cnnc1 | 6.84%
82 | O=C(CN1CCN(S(=O)(=O)c2ccc(Cl)cc2)CC1)NCC1(N2CCOCC2)CCCCC1 | -2.18%
83 | Cc1ccccc1-c1ccc(=O)n(CC(=O)Nc2ccc(C(=O)N3CCCC3)cc2)n1 | 11.9%
84 | O=C(COC(=O)c1cc(-c2cccnc2)nc2ccccc12)Nc1ccc(F)cc1F | 9.34%
85 | CN(CC(=O)NCc1ccco1)C(=O)C1CC(=O)N(c2ccc3c(c2)OCCO3)C1 (stereo not drawn) | 7.67%
86 | CC(=O)Nc1ccc(S(=O)(=O)NCC(=O)NCCCc2ccccc2)cc1 | 11.8%
87 | CCOC(=O)c1ccc(N2C(=O)CC(N(C)CCc3ccc(OC)c(OC)c3)C2=O)cc1 (stereo not drawn) | 4.1%

— PMC4336329 (PLoS ONE, 2015)
